From PMC9911399, “Two distinct binding modes provide the RNA-binding protein RbFox with extraordinary sequence specificity”
Where a chain is given by its changes, count along the chain named. The list shows a part of the results.

T1: RBFOX1 RRM RbFoxmut (Fox-RRM*) (Homo sapiens, UniProt Q9NWB1 109-208, R118D;E147R;N151S;E152T)
T1 sequence: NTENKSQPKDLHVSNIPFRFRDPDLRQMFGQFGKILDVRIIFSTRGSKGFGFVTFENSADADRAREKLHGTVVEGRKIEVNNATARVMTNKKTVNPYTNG

B1: CUCCAUU (DNA:RNA)
RNA: GGGAGACCGGAAUUCAGAUUGUCCCUCCAUUUUAAAUCCCGUCGUAGCCACCA
DNA 1: CAATCTGAATTCCGGTCTCCC
DNA 2: TGGTGGCTACGACGGGATT
B2: CAUACGC (DNA:RNA)
RNA: B1 RNA with U26A, C27U, C28A, A29C, U30G, U31C
DNA 1: CAATCTGAATTCCGGTCTCCC
DNA 2: TGGTGGCTACGACGGGATT
B3: GCUCUGG (DNA:RNA)
RNA: B1 RNA with C25G, U26C, C27U, A29U, U30G, U31G
DNA 1: CAATCTGAATTCCGGTCTCCC
DNA 2: TGGTGGCTACGACGGGATT
B4: GGGACGA (DNA:RNA)
RNA: GGGAGACCGGAAUUCAGAUUGUCCGGGACGAUUAAAUCCCGUCGUAGCCACCA
DNA 1: CAATCTGAATTCCGGTCTCCC
DNA 2: TGGTGGCTACGACGGGATT
B5: ACUUCAG (DNA:RNA)
RNA: B4 RNA with G25A, G26C, G27U, A28U, G30A, A31G
DNA 1: CAATCTGAATTCCGGTCTCCC
DNA 2: TGGTGGCTACGACGGGATT
B6: AGCGCGG (DNA:RNA)
RNA: B4 RNA with G25A, G27C, A28G, A31G
DNA 1: CAATCTGAATTCCGGTCTCCC
DNA 2: TGGTGGCTACGACGGGATT
B7: GAGAUCU (DNA:RNA)
RNA: B4 RNA with G26A, C29U, G30C, A31U
DNA 1: CAATCTGAATTCCGGTCTCCC
DNA 2: TGGTGGCTACGACGGGATT
B8: AAUUAAG (DNA:RNA)
RNA: B1 RNA with C25A, U26A, C27U, C28U, U30A, U31G
DNA 1: CAATCTGAATTCCGGTCTCCC
DNA 2: TGGTGGCTACGACGGGATT
B9: GCGUAUU (DNA:RNA)
RNA: B1 RNA with C25G, U26C, C27G, C28U
DNA 1: CAATCTGAATTCCGGTCTCCC
DNA 2: TGGTGGCTACGACGGGATT
B10: CCCAAAC (DNA:RNA)
RNA: B1 RNA with U26C, C28A, U30A, U31C
DNA 1: CAATCTGAATTCCGGTCTCCC
DNA 2: TGGTGGCTACGACGGGATT
B11: UGUGCGU (DNA:RNA)
RNA: B4 RNA with G25U, G27U, A28G, A31U
DNA 1: CAATCTGAATTCCGGTCTCCC
DNA 2: TGGTGGCTACGACGGGATT
B12: GAGGGUG (DNA:RNA)
RNA: B4 RNA with G26A, A28G, C29G, G30U, A31G
DNA 1: CAATCTGAATTCCGGTCTCCC
DNA 2: TGGTGGCTACGACGGGATT
B13: AUUGGCC (DNA:RNA)
RNA: B1 RNA with C25A, C27U, C28G, A29G, U30C, U31C
DNA 1: CAATCTGAATTCCGGTCTCCC
DNA 2: TGGTGGCTACGACGGGATT
B14: GAAGUUG (DNA:RNA)
RNA: B1 RNA with C25G, U26A, C27A, C28G, A29U, U31G
DNA 1: CAATCTGAATTCCGGTCTCCC
DNA 2: TGGTGGCTACGACGGGATT
B15: UUCUCUC (DNA:RNA)
RNA: B1 RNA with C25U, C28U, A29C, U31C
DNA 1: CAATCTGAATTCCGGTCTCCC
DNA 2: TGGTGGCTACGACGGGATT
B16: UCCCUGU (DNA:RNA)
RNA: B1 RNA with C25U, U26C, A29U, U30G
DNA 1: CAATCTGAATTCCGGTCTCCC
DNA 2: TGGTGGCTACGACGGGATT
B17: UAAAACU (DNA:RNA)
RNA: B1 RNA with C25U, U26A, C27A, C28A, U30C
DNA 1: CAATCTGAATTCCGGTCTCCC
DNA 2: TGGTGGCTACGACGGGATT
B18: GCCCUUU (DNA:RNA)
RNA: B1 RNA with C25G, U26C, A29U
DNA 1: CAATCTGAATTCCGGTCTCCC
DNA 2: TGGTGGCTACGACGGGATT
B19: UUCGCAG (DNA:RNA)
RNA: B1 RNA with C25U, C28G, A29C, U30A, U31G
DNA 1: CAATCTGAATTCCGGTCTCCC
DNA 2: TGGTGGCTACGACGGGATT
B20: GUGAAUG (DNA:RNA)
RNA: B1 RNA with C25G, C27G, C28A, U31G
DNA 1: CAATCTGAATTCCGGTCTCCC
DNA 2: TGGTGGCTACGACGGGATT
B21: CAUUUAA (DNA:RNA)
RNA: B1 RNA with U26A, C27U, C28U, A29U, U30A, U31A
DNA 1: CAATCTGAATTCCGGTCTCCC
DNA 2: TGGTGGCTACGACGGGATT
B22: CGUCUAG (DNA:RNA)
RNA: B1 RNA with U26G, C27U, A29U, U30A, U31G
DNA 1: CAATCTGAATTCCGGTCTCCC
DNA 2: TGGTGGCTACGACGGGATT
B23: CCACAGG (DNA:RNA)
RNA: B1 RNA with U26C, C27A, U30G, U31G
DNA 1: CAATCTGAATTCCGGTCTCCC
DNA 2: TGGTGGCTACGACGGGATT
B24: UGAGUCG (DNA:RNA)
RNA: B4 RNA with G25U, G27A, A28G, C29U, G30C, A31G
DNA 1: CAATCTGAATTCCGGTCTCCC
DNA 2: TGGTGGCTACGACGGGATT
B25: CCGAUUG (DNA:RNA)
RNA: B1 RNA with U26C, C27G, C28A, A29U, U31G
DNA 1: CAATCTGAATTCCGGTCTCCC
DNA 2: TGGTGGCTACGACGGGATT
B26: GCCUUCC (DNA:RNA)
RNA: B1 RNA with C25G, U26C, C28U, A29U, U30C, U31C
DNA 1: CAATCTGAATTCCGGTCTCCC
DNA 2: TGGTGGCTACGACGGGATT
B27: GGCAAAU (DNA:RNA)
RNA: B1 RNA with C25G, U26G, C28A, U30A
DNA 1: CAATCTGAATTCCGGTCTCCC
DNA 2: TGGTGGCTACGACGGGATT
B28: UAAAUAG (DNA:RNA)
RNA: B4 RNA with G25U, G26A, G27A, C29U, G30A, A31G
DNA 1: CAATCTGAATTCCGGTCTCCC
DNA 2: TGGTGGCTACGACGGGATT
B29: GCAAUUC (DNA:RNA)
RNA: B4 RNA with G26C, G27A, C29U, G30U, A31C
DNA 1: CAATCTGAATTCCGGTCTCCC
DNA 2: TGGTGGCTACGACGGGATT
B30: UAAGGCC (DNA:RNA)
RNA: GGGAGACCGGAAUUCAGAUUGUCCUAAGGCCUUAAAUCCCGUCGUAGCCACCA
DNA 1: CAATCTGAATTCCGGTCTCCC
DNA 2: TGGTGGCTACGACGGGATT
B31: GAAGUUA (DNA:RNA)
RNA: B30 RNA with U25G, G29U, C30U, C31A
DNA 1: CAATCTGAATTCCGGTCTCCC
DNA 2: TGGTGGCTACGACGGGATT

biological target: T1, RBFOX1 RRM RbFoxmut (Fox-RRM*); assay: EMSA; HiTS-Eq, 1 nM pool, 10 min; buffer printed only for the single-RNA assays: 10 mM Tris pH 7.5, 150 mM NaCl, 3.4 mM EDTA, 0.001% NP-40, 30 C; details: tags: His6 N-terminal (pET28a); label: 5' 32P
Summary of the method: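 Purified RbFox RRM, wild type or mutant, was incubated for 10 min in 50 µL with 1 nM of a 5′-radiolabelled RNA pool carrying 7 randomized nucleotides, whose flanks were annealed to DNA oligonucleotides, over a series of increasing protein concentrations. Unbound RNA was resolved on 8% native PAGE, cut out, reverse-transcribed, barcoded by PCR and sequenced on an Illumina HiSeq 2500. Relative association constants were derived from changes in read counts for each RNA species versus the control reaction and normalised to the cognate motif.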

Row | Binder | binding signal
1 | B1 | 0.0948 KA relative to UGCAUGU
2 | B2 | 0.1 KA relative to UGCAUGU
3 | B3 | 0.0884 KA relative to UGCAUGU
4 | B4 | 0.129 KA relative to UGCAUGU
5 | B5 | 0.119 KA relative to UGCAUGU
6 | B6 | 0.116 KA relative to UGCAUGU
7 | B7 | 0.0437 KA relative to UGCAUGU
8 | B8 | 0.112 KA relative to UGCAUGU
9 | B9 | 0.115 KA relative to UGCAUGU
10 | B10 | 0.0842 KA relative to UGCAUGU
11 | B11 | 0.208 KA relative to UGCAUGU
12 | B12 | 0.18 KA relative to UGCAUGU
13 | B13 | 0.272 KA relative to UGCAUGU
14 | B14 | 0.122 KA relative to UGCAUGU
15 | B15 | 0.0655 KA relative to UGCAUGU
16 | B16 | 0.119 KA relative to UGCAUGU

Row | Binder | binding signal
17 | B17 | 0.0578 KA relative to UGCAUGU
18 | B18 | 0.0862 KA relative to UGCAUGU
19 | B19 | 0.0914 KA relative to UGCAUGU
20 | B20 | 1.45 KA relative to UGCAUGU
21 | B21 | 0.141 KA relative to UGCAUGU
22 | B22 | 0.115 KA relative to UGCAUGU
23 | B23 | 0.0929 KA relative to UGCAUGU
24 | B24 | 0.177 KA relative to UGCAUGU
25 | B25 | 0.181 KA relative to UGCAUGU
26 | B26 | 0.118 KA relative to UGCAUGU
27 | B27 | 0.0624 KA relative to UGCAUGU
28 | B28 | 0.0827 KA relative to UGCAUGU
29 | B29 | 0.0484 KA relative to UGCAUGU
30 | B30 | 0.186 KA relative to UGCAUGU
31 | B31 | 0.113 KA relative to UGCAUGU
